Laboratory results from article PMC6919601, “Identification of Plasmodium dipeptidyl aminopeptidase allosteric inhibitors by high throughput screening” (PLoS ONE, 2019).
Among all 110,000 compounds or so, about 230 (0.21%) showed an effect of 50% or more. This is one part of the list.

target: DPAP1 (Plasmodium falciparum, UniProt Q8IIJ9); assay: primary screen, percent inhibition; read by cleavage of a fluorogenic dipeptide substrate; higher = more effect of the substance; set-up: species or system P. falciparum D10 trophozoite lysates; single well
Sequence (Q8IIJ9 whole entry, looked up): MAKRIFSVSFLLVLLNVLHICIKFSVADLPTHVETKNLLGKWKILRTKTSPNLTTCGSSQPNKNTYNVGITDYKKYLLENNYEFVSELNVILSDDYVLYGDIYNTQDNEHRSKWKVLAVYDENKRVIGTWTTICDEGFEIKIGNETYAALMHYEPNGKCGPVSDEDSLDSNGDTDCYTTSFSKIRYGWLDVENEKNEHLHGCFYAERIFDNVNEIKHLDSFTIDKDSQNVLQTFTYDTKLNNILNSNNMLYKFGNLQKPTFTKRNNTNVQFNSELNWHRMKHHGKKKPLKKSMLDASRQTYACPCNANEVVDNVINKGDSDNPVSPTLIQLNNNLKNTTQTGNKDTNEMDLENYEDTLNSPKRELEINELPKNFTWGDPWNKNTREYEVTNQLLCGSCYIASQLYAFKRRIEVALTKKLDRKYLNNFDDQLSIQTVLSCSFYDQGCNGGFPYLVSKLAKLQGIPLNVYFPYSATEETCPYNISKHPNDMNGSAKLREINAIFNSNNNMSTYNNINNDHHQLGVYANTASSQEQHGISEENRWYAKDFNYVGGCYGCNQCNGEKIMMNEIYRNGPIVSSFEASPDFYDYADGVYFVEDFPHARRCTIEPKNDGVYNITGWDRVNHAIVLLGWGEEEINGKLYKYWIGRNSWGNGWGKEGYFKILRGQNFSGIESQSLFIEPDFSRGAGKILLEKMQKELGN
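Also: 30 min substrate incubation versus DMSO and 10 µM JCP410 controls.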

In order of falling “% Inhibition @ 10 uM” value:
1. COc1ccc(/C(O)=C(\C#N)c2nc3ccccc3n2C)cc1OC  28.7%
2. COc1cccc(C2CC(=O)N3CN(Cc4ccco4)CSC3=C2C#N)c1OC (stereo not drawn)  18.7%
3. Cn1c(N2C(=O)CC(Cc3ccc(Cl)cc3)C2=O)nc2ccccc21 (stereo not drawn)  18.2%
4. COc1ccc(-n2nnc(C(N)=O)c2C)cc1Cl  11.2%
5. CC(=O)Nc1sc2c(c1C#N)CCCC2  9.4%
6. COc1ccc(C(=O)CSc2nc(-c3ccc(Cl)cc3)c[nH]2)cc1  9.11%
7. Cc1cc(NCc2ccccc2)nc(-c2ccccc2O)n1  6.15%
8. Cc1nc2sc3c(c2c2nnnn12)CCCC3  6.02%
9. COc1ccc(C2CC(=O)C3=C(C2)NC(=O)CC3c2cccc(O)c2)cc1OC (stereo not drawn)  5.86%
10. CC(C)c1ccc(S(=O)(=O)/N=C2/C=CC(=O)c3ccccc32)cc1  5.12%
11. Cc1nnc(O)c2c(C)[nH]c(C)c12  4.79%
12. O=C(Nc1nc2ccccc2s1)C1CCCN(c2ncnc3c2nc2n3CCCCC2)C1 (stereo not drawn)  4.61%
13. Cc1onc(-c2ccccc2)c1C(=O)NCc1ccc(Cl)cc1  4%
14. CCOc1ccc2nc(NC(=O)COc3ccccc3C)sc2c1  3.91%
15. COc1ccc(C(=O)OCCNC(=O)c2cccnc2)cc1  3.82%
16. CC1(C)CC(NC(=O)Cn2nc(-c3ccc(Cl)cc3)c3ccccc3c2=O)CC(C)(C)N1  3.81%
17. COC(=O)c1cc(S(=O)(=O)NCCCc2ccco2)c[nH]1  3.78%
18. CC(C)n1cc(/C=C2/SC(=O)N(CC(=O)Nc3ccc4c(c3)OCO4)C2=O)c2ccccc21  3.75%
19. CC1=C(C(=O)Nc2ccccc2)C(c2ccco2)C(C#N)=C(SCC(=O)Nc2ccc(C)c(C)c2)N1 (stereo not drawn)  3.46%
20. CCOC(=O)c1oc2ccc3c(c2c1C)C(=O)CC(C)(C)O3  3.29%
21. CCOC(=O)c1ccc(-c2ccc(/C=C(\C#N)c3nn(CCO)c(N)c3C#N)o2)cc1  3.04%
22. O=Cc1cn(-c2nc(-c3ccccc3)c3cc(Br)ccc3n2)nc1-c1ccccc1  2.86%
23. Cn1c2c(c(=O)[nH]c1=O)C1(O)C(=O)c3ccccc3C1(O)N2 (stereo not drawn)  2.76%
24. Cc1cccc(Cn2c(CCNC(=O)C(C)(C)C)nc3ccccc32)c1  2.73%
25. O=C(c1ccc2c(c1)C(=O)N(CCCO)C2=O)c1ccc2c(c1)C(=O)N(CCCO)C2=O  2.65%
26. OCC(CO)(CO)N(CC1CCCCC1)CC1CCCCC1  2.6%
27. CC(Oc1ccccc1)C(=O)Nc1cccnc1Cl (stereo not drawn)  2.5%
28. CC(=O)c1ccccc1OCC(O)Cn1c(C(C)C)nc2ccccc21 (stereo not drawn)  2.31%
29. Cc1ccc(S(=O)(=O)N(CC(=O)NCc2cccnc2)Cc2ccc(Cl)c(Cl)c2)cc1  2.17%
30. CCOC(=O)c1ccc(Nc2nc(NC)nc(OC(C(F)(F)F)C(F)(F)F)n2)cc1  1.7%
31. COc1ccc(OC)c(CN2CCc3ccccc3C2)c1  1.55%
32. O=C(c1ccco1)N1CCN(Cc2nnc(-c3cccc(Cl)c3)o2)CC1  1.49%
33. CS(=O)(=O)N(CC(=O)N1CCCCCC1)c1ccc(Br)cc1  1.39%
34. COc1ccc(S(=O)(=O)N2CCCC2)cc1C(=O)N1CCOCC1  1.32%
35. O=C(CN1CCCCC1)N1Cc2ccccc2CCc2ccccc21  1.25%
36. COc1ccc(-c2noc(N3CCC(C(N)=O)CC3)n2)cc1OC  1.19%
37. CC(=O)Nc1ccc(S(=O)(=O)Nc2ccccc2C(=O)NCCc2ccccc2)cc1  1.17%
38. CC1CCN(c2c(NCc3ccc(C(=O)NC4CCCC(C)C4C)cc3)c(=O)c2=O)CC1 (stereo not drawn)  1.15%
39. COCCNC(=S)N(CCc1c(C)[nH]c2ccc(C)cc12)Cc1cccs1  0.813%
40. CS(=O)(=O)N(CC(=O)Nc1ccc(Cl)c(C(F)(F)F)c1)C1CCCCC1  0.709%
41. C=CCOc1ccc(Br)cc1/C=C1/SC(=O)NC1=O  0.528%
42. COc1ccc2c(c1)-c1nc(N)sc1CC2  0.345%
43. CCN1CCC(NCCc2cccc(Cl)c2)CC1  0.217%
44. Cc1ccnc(NS(=O)(=O)c2ccc(NC(=O)c3cccnc3)cc2)n1  0.138%
45. Cn1c(=O)c2c(nc(CN3CCN(C(=O)c4ccco4)CC3)n2CC(=O)c2ccccc2)n(C)c1=O  0.102%
46. O=C(O)Cn1c(=S)sc2ccccc21  0.035%
47. COc1ccc(Cl)cc1NC(=O)CSCc1cccc(Br)c1  -0.0217%
48. O=C(N/C(=C\c1ccccc1)C(=O)N1CCOCC1)c1ccc(Br)o1  -0.0959%
49. COc1ccc(OCc2ccc(C3C(C#N)=C(N)OC4=C3C(=O)CC(C)(C)C4)cc2OC)cc1 (stereo not drawn)  -0.105%
50. C=Cc1ccc(Cn2c(C)c(CNCCC3=CCCCC3)c(C(=O)O)c2C)cc1  -0.23%
51. Cc1nonc1OCC(C)(COc1nonc1C)NC(=O)c1ccc(Cl)cc1  -0.297%
52. Cc1ccc2c(Cl)c(C(=O)NCc3ccccn3)sc2c1  -0.413%
53. Nc1cc(N)nc(SCC(=O)Nc2ccccc2C(F)(F)F)n1  -0.519%
54. Cc1nc2c(c(C)nn2-c2ccccc2)c(C)c1CCC(=O)NC(C)CCc1ccco1 (stereo not drawn)  -0.72%
55. Clc1ccc(CNCc2cccnc2)cc1  -0.771%
56. Cc1[nH]c(-c2ccc(F)cc2)cc1C(=O)N1CCC(N2CCCCC2)CC1  -0.959%
57. O=C(O)C1CCCCC1C(=O)N1CCN(c2ccc(Cl)cc2)CC1 (stereo not drawn)  -1.2%
58. CC1COc2c(F)c(F)cc3c(=O)c(C(=O)O)cn1c23 (stereo not drawn)  -1.29%
59. O=C(NCC1CCCO1)c1ccc(-n2cnc3cccnc32)cc1 (stereo not drawn)  -1.3%
60. O=C1CN(C(=O)COc2ccccc2)CCN1  -1.33%
61. CN1CCc2c(c3ccccc3n2-c2ccccc2)C1  -1.42%
62. O=C(NCCSc1ccccc1)c1ccc2ccccc2n1  -1.55%
63. CCN(CC)CCCCOc1ccc(Cl)cc1  -1.62%
64. CC(NC(=O)Cn1c(-c2nonc2N)nc2ccccc21)c1ccccc1 (stereo not drawn)  -1.81%
65. COc1ccc(S(=O)(=O)NCCc2ccc(OC)c(OC)c2)cc1C  -1.89%
66. CCN(Cc1ccccc1)Cc1ccccn1  -2.21%
67. CS(=O)(=O)N1CCN(c2ccc(NC(=O)c3cccc4ccccc34)cc2)CC1  -2.29%
68. O=C(CNC(=S)N(Cc1ccccc1F)C1CCCCC1)NC1CCCC1  -2.36%
69. Cc1ccc(OCC(=O)Nc2ccccn2)c(-n2nc3ccccc3n2)c1  -2.41%
70. O=c1oc2cc3occ(-c4ccccc4)c3cc2c2c1CCC2  -2.57%
71. O=S(=O)(Nc1ccc(F)cc1)c1ccc2c(c1)OCCO2  -2.6%
72. Cc1cc(C)c(S(=O)(=O)N(C)CC(=O)Nc2ccccc2F)c(C)c1  -2.65%
73. CCCOc1c(Cl)cc(C(=O)N(Cc2sccc2C)C2CCS(=O)(=O)C2)cc1Cl (stereo not drawn)  -2.85%
74. CCCCc1[nH]nc2c1C(c1ccc(OCCN3CCOCC3)c(OCC)c1)C(C#N)=C(N)O2 (stereo not drawn)  -2.9%
75. Cc1ccc(N2C(=O)NC(=O)/C(=C/Nc3ccccc3O)C2=O)cc1C  -3.03%
76. Cn1c(=O)c2nc(-c3cccc(O)c3)[nH]c2n(C)c1=O  -3.05%
77. CCC(=O)c1c(-c2ccccc2)nc2n(CCN(CC)CC)c3ccccc3n12  -3.14%
78. CCOC(=O)C1=CN(Cc2ccc(F)cc2)C=C(C(=O)OCC)C1c1cc(OC)c(OC)c(OC)c1  -3.23%
79. C=CCn1c(N2CCCCC2)nc2c1c(=O)[nH]c(=O)n2C  -3.63%
80. Cc1ccc(C)c(Cn2c(C)c(CNCc3ccco3)c(C(=O)O)c2C)c1  -3.67%
81. CCC(=O)c1c(-c2ccc(Cl)cc2)nc2n(CCN3CCCCC3)c3ccccc3n12  -3.77%
82. CCOC(=O)N1CCN(C(=O)NC23CC4CC(CC(C4)C2)C3)CC1  -3.77%
83. CCCOc1ccc(C(=O)C2=C(O)C(=O)N(Cc3cccnc3)C2c2ccccc2)cc1 (stereo not drawn)  -3.87%
84. Cc1nn(C)cc1C(=O)c1ccccc1  -4.43%
85. CC(C)(C)C1CCc2c(sc3nnn(CC(=O)NCCc4ccccc4)c(=O)c23)C1 (stereo not drawn)  -4.54%
86. CN1CCN(c2ccc(N3CCN(C(=O)NC4(C(=O)NCC#N)CCCCC4)CC3)cc2)CC1  -4.72%
87. COc1ccc(-c2cc(C(F)(F)F)n3ncc(C(=O)NCC4CCCO4)c3n2)cc1 (stereo not drawn)  -4.84%
88. O=C1CCCC2=C1C(c1ccccc1C(F)(F)F)Nc1ccc3ccccc3c12 (stereo not drawn)  -4.93%
89. COc1ccc(C(=O)/C=C/c2cccc([N+](=O)[O-])c2)c(OC)c1  -5.41%
90. Cc1ccc2[nH]c3c(c2c1)CC/C(=C/c1ccco1)C3=O  -5.51%
91. O=C(CN1C(=O)C2CCCN2C1=O)N1CCN(c2cccc(Cl)c2)CC1 (stereo not drawn)  -5.81%
92. Nc1ccccc1-c1ccccc1N(c1ccccc1)c1ccccc1  -5.9%
93. COc1cc(OC)cc(C2=N/C(=C/c3ccccc3)C(=O)O2)c1  -6.82%
94. CCc1ccc(-n2nnc(-c3nc(-c4ccc(Cl)cc4)no3)c2N)cc1  -7.18%
95. O=C1CC(c2ccccc2)NC(SCC(=O)Nc2cccc3ccccc23)=N1 (stereo not drawn)  -7.55%
96. CCOc1ccccc1CNC(=O)CCn1c(=O)c2cccn2c2cccnc21  -7.94%
97. Cc1ccccc1S(=O)(=O)Cc1ccc(C(=O)NCCN2CCCCC2C)o1 (stereo not drawn)  -8.34%
98. O=C(O)C1C2C=CC(C2)C1C(=O)N1CCCC1 (stereo not drawn)  -9.11%
99. CC1CCc2onc(C(=O)NCc3ccccn3)c2C1 (stereo not drawn)  -10.8%
